According to PubChem BioAssay (NCATS):
Where “and” joins values, the source holds several entries; their conditions need not be identical. Equal values may be shown once. Inconclusive results, whose numbers are uncertain, are shown with a selection of clear calls. Potencies of inconclusive entries are left out as doubtful fits. Calls of active or inactive are those of the source. Calls follow the shape of the dose curve; as a rule, active = well fitted inhibition curve with a large enough effect; inconclusive = small, poorly fitted or top-dose-only effect; inactive = no such curve, though single readings can be large or run the other way.

Target: Cytochrome P450 3A4 (Homo sapiens) (UniProt P08684)
Test: qHTS Assay for Inhibitors and Substrates of Cytochrome P450 3A4 (AID 884); also: nearly all actives have a fitted effect of over 50% in size
Conditions: recombinant CYP3A4, Luciferin-PPXE luminescence; activity change, negative = inhibition: at 57.1 µM (top of the series) unless noted
Procedure, shortened: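 Luminescent readout of luciferin produced by CYP3A4 (20 nM) dealkylation of Luciferin-PPXE, 25 uM (its KM). NADPH-driven reaction ran 60 min at RT after 10 min compound preincubation; data scaled to 57 uM ketoconazole as 100% inhibition.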
% is scaled to controls: 0 for no effect and ±100 for the full control effect; potency is read from the fitted curve at half-maximal effect; tags tell the direction and shape of the fitted curve.

UniProt P08684, sequence (P08684 whole entry, looked up): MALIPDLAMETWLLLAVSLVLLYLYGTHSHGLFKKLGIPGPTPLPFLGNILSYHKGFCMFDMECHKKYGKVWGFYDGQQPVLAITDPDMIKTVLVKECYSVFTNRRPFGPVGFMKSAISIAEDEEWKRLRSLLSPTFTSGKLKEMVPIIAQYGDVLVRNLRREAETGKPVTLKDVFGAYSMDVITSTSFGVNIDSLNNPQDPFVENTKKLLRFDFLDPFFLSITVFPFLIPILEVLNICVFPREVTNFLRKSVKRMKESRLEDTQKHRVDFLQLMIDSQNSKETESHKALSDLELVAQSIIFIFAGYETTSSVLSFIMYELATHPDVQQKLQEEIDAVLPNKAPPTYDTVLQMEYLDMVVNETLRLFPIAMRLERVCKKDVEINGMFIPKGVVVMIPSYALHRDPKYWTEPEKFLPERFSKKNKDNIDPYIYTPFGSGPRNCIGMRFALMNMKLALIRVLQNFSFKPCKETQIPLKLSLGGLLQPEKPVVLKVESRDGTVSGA

Q: How did the activity change, negative = inhibition turn out when `CC1CN2C(CCC(C)C2c2ccc(Br)cc2)C(=O)O1` (stereo not drawn) was run?
A: inactive: -15.8% [at 11.4 µM] and inactive: -28.1% [at 11.4 µM]

Q: How did the Potency turn out when `O=C1[C@H]2[C@H]3[C@H](O)[C@H](O)C/C(=N/OC[C@@H](O)COCc4ccco4)[C@H]3CC[C@@H]2C(=O)N1c1cccc(Oc2ccccc2)c1` was run?
A: inconclusive [inhibitor, partial curve]

Q: `C[C@@H](C(=O)Nc1ccc2ccccc2c1)[C@H]1C[C@]1(C)[C@H](NS(=O)(=O)c1ccc2ccccc2c1)c1ccccc1` was tested. Which Potency did it give?
A: active: 7.94 µM

Q: For `COC(=O)NC(c1ccccc1)[C@@]1(C(=O)OC)CCCC1=O` (stereo partly drawn), which activity change, negative = inhibition is on record?
A: inactive: -15.7% [at 11.4 µM]

Q: Which Potency does the source give for `COc1ccc(Oc2ncc3nc(-c4ccc(Cl)cc4)c(=O)n(C)c3n2)cc1` here?
A: inconclusive [inhibitor, full curve, poor fit]

Q: With `CC(C)CCCC(C)C1CCC2C3=CC[C@@H]4CC(O)CC[C@@]4(C)C3CC[C@]21C` (stereo partly drawn) as the compound, how does the Potency read?
A: inactive

Q: `CC(=O)OC[C@@H]1O[C@H](C/C=N\O[C@@H](C)CN2CCCc3nc(C)c(C)cc32)C=C[C@@H]1OC(C)=O` was tested. Which Potency did it give?
A: inconclusive [inhibitor, partial curve]

Q: With `CCN1C(=O)[C@H]2[C@H]3[C@H](O)[C@H](O)C/C(=N/OC[C@@H](C)[C@H](OCc4ccccc4)C(C)C)[C@@H]3CC[C@@H]2C1=O` as the compound, how does the Potency read?
A: inconclusive [inhibitor, partial curve]

Q: With `CCC1=C(OC(=O)N(CC)CC)N2C(=O)OC(=NCc3ccccc3)[C@]2(C)[C@H]2C1=CC[C@H]1C(=O)N(c3ccccc3)C(=O)[C@H]12` as the compound, how does the Potency read?
A: active: 2.51 µM

Q: How did the Potency turn out when `CC1c2cccc(O)c2C(O)=C2C(=O)[C@]3(O)C(O)=C(C(N)=O)C(=O)C(N(C)C)C3C(O)C21` (stereo partly drawn) was run?
A: inactive

Q: `CC(Cc1ccccc1)C(=O)N[C@@H](CO)Cc1ccccc1` (stereo partly drawn) was tested. Which Potency did it give?
A: active: 15.8 µM

Q: How did the Potency turn out when `COC(=O)[C@@H]1CC[C@H](C)[C@@H](c2ccc(C)cc2)N1C(=O)c1ccc(/C=N\OC[C@@H]2O[C@H](c3ccccc3)C=C[C@@H]2Oc2ccc(OC)cc2)cc1` was run?
A: inconclusive [inhibitor, partial curve]

Q: For `CC(=O)OC[C@@H]1O[C@@H](O/N=C2/C[C@@H](O)[C@@H](O)[C@@H]3[C@@H]4C(=O)N(Cc5ccc6c(c5)OCO6)C(=O)[C@H]4CC[C@@H]23)[C@H](OC(C)=O)[C@H](OC(C)=O)[C@@H]1OC(C)=O`, which Potency is on record?
A: inconclusive [inhibitor, full curve]

Q: Which Potency does the source give for `CO[C@H]1COC(=O)[C@@H](C)COC(=O)[C@@H](Cc2ccccc2)NC(=O)C/C=C\[C@H]1C` here?
A: inconclusive [inhibitor, single point]

Q: For `O=C1[C@H]2[C@H]3[C@H](O)[C@H](O)C/C(=N/OC[C@@H](O)COCc4ccco4)[C@@H]3CC[C@@H]2C(=O)N1C1CCCCC1`, which Potency is on record?
A: inconclusive [inhibitor, partial curve]

Q: For `COC(=O)c1ccc(C(NC(=O)OCc2ccccc2)/C(=C/[C@@H](C)C(=O)NCc2ccc(-c3ccccc3)cc2)c2cccnc2)cc1` (stereo partly drawn), which Potency is on record?
A: active: 0.794 µM

Q: How did the Potency turn out when `CC(C)CO/N=C1/C[C@@H](O)[C@@H](O)[C@@H]2[C@@H]3C(=O)N([C@@H](C)c4ccccc4)C(=O)[C@H]3CC[C@H]12` was run?
A: inconclusive [inhibitor, partial curve]

Q: With `CC(C)=CCC/C(C)=C/CO/N=C1/C[C@@H](O)[C@@H](O)[C@@H]2[C@H]3C(=O)N(c4ccc(F)cc4F)C(=O)[C@@H]3CC[C@H]12` as the compound, how does the Potency read?
A: inconclusive [inhibitor, partial curve]

Q: `CCOC(=O)N/N=C1/C[C@@H](O)[C@@H](O)[C@@H]2[C@@H]3C(=O)N(Cc4ccc5c(c4)OCO5)C(=O)[C@H]3CC[C@H]12` was tested. Which Potency did it give?
A: inconclusive [inhibitor, single point]

Q: With `COc1ccc(Oc2ncc3nc(-c4ccc(OC)cc4)c(=O)n(C)c3n2)cc1` as the compound, how does the Potency read?
A: inconclusive [inhibitor, full curve]

Q: Which activity change, negative = inhibition does the source give for `COc1c(O)cc(O)cc1O` here?
A: inconclusive: -31.9% [inhibitor]

Q: How did the Potency turn out when `Cc1cnc(CNc2ncncc2-c2ccccc2Cl)cn1` was run?
A: inconclusive [inhibitor, full curve]

Q: For `COC(=O)[C@@]1(C)C=C[C@@H](Cc2ccccc2)N1C`, which Potency is on record?
A: active: 12.6 µM
